{"source": "PubChem BioAssay AID624296", "about": "(National Center for Advancing Translational Sciences (NCATS), 2012)", "note": "Out of some 350,000 compounds screened, about 9,900 (2.8%) were called active. Inconclusive means that the source gave no clear call. Such entries were picked first, then a sample of the others. The call rests on the fitted dose curve; in most records, active means well fitted activation curve with a large enough effect; inconclusive means small, poorly fitted or top-dose-only effect; inactive means no such curve, though single readings can be large or run the other way. Potencies of inconclusive entries are left out as doubtful fits. Potency means the concentration at half of the fitted maximal effect; tags describe the fitted curve by direction and shape.", "data": [{"assay": "A quantitative high throughput screen for small molecules that induce DNA re-replication in MCF 10a normal breast cells; further: nearly all actives have a fitted effect of over 50% in size.", "settings": "MCF 10A DNA re-replication, Hoechst nuclear intensity, 48 h; series mostly up to 46.1 µM", "values": [{"smiles": "NNC(=O)c1oc2nc(-c3ccccc3)cc(-c3ccccc3)c2c1N", "Potency": "active: 18.4 µM"}, {"smiles": "CSC1=NCCN1C(=O)c1ccc(S(=O)(=O)N2CCCCC2)cc1", "Potency": "inconclusive [activator, single point]"}, {"smiles": "COc1ccc(/C(C)=N/Nc2nc(C)c(C(C)=O)s2)cc1", "Potency": "inconclusive [activator, partial curve, poor fit]"}, {"smiles": "CC(C)n1cc(/C=C2/NC(=O)N(c3cccc(Cl)c3)C2=O)c2ccccc21", "Potency": "inconclusive [activator, single point]"}, {"smiles": "COc1ccc(C2Nc3ccccc3C(=O)N2Cc2ccco2)cc1COc1ccccc1F", "note": "(stereo not drawn)", "Potency": "inconclusive [activator, single point]"}, {"smiles": "Cc1ccccc1CN1CCc2c(OCC(=O)N3CCCc4ccccc43)cccc2C1=O", "Potency": "inconclusive [activator, single point]"}, {"smiles": "CCN(CC)C(=O)CC(c1ccc(N(C)C)cc1)c1c(O)cc(OC)cc1OC", "note": "(stereo not drawn)", "Potency": "inconclusive [activator, full curve, poor fit]"}, {"smiles": "CCOC(=O)Cn1nc(NC(=O)c2ccc(C(=O)OC)cc2)cc1C", "Potency": "inconclusive [activator, single point]"}, {"smiles": "COC(=O)C1=C(C)N(c2ccc(Br)cc2)C(=O)/C1=C\\c1ccco1", "Potency": "inconclusive [activator, single point]"}, {"smiles": "Cc1ccc(NC(=O)CCC(=O)OCCCC(F)(F)C(F)(F)F)cc1", "Potency": "inactive"}, {"smiles": "Cc1ccc2cc(CN(CCN(C)C)C(=O)Nc3ccc(Cl)cc3)c(=O)[nH]c2c1", "Potency": "inconclusive [activator, single point]"}, {"smiles": "CC(=O)C1=C(C)NC(C)=C(C(C)=O)C1c1ccc(-c2ccccc2Cl)o1", "Potency": "inconclusive [activator, single point]"}, {"smiles": "Cc1c(NC(=S)NC(=O)C(C)(C)C)c(=O)n(-c2ccccc2)n1C", "Potency": "inconclusive [activator, partial curve]"}, {"smiles": "CCCCN(C(=O)NC(=O)Nc1cccc(C)c1C)S(C)(=O)=O", "Potency": "inconclusive [activator, single point]"}, {"smiles": "CCN(CC)c1ccc2cc(-c3nc4ccccc4[nH]3)c(=O)oc2c1", "Potency": "active: 4.11 µM"}, {"smiles": "Cc1cc(C)cc(NC(=O)COC(=O)CC2CCCC2)c1", "Potency": "inactive"}, {"smiles": "COc1cccc(/C=N/NC(=O)CN2CC(c3ccccc3)CC2=O)c1O", "note": "(stereo not drawn)", "Potency": "inconclusive [activator, single point]"}, {"smiles": "CC1CC(C)CN(CCCNS(=O)(=O)c2ccc3c(c2)CCN3C(=O)C2CC2)C1", "note": "(stereo not drawn)", "Potency": "inconclusive [activator, partial curve, poor fit]"}, {"smiles": "Cc1ccc(C2CC(c3ccccc3)=NN2C(=S)Nc2ccccc2)o1", "note": "(stereo not drawn)", "Potency": "active: 5.17 µM"}, {"smiles": "CCN(CC)C(=O)c1sc(NC(=O)c2cc(-c3ccc(C)s3)nc3ccccc23)c(C(=O)OC)c1C", "Potency": "inactive"}, {"smiles": "CCOC(=O)CSc1nc2c(sc(=S)n2-c2ccccc2OC)c(=O)n1-c1ccccc1OC", "Potency": "inactive"}, {"smiles": "Cc1ccc(S(=O)(=O)CCC(=O)OCC(=O)c2c[nH]c3ccccc23)cc1", "Potency": "inconclusive [activator, partial curve, poor fit]"}, {"smiles": "Cn1c(=O)n(C)c2cc(C(N)=O)ccc21", "Potency": "inconclusive [activator, single point]"}, {"smiles": "Cc1cc(C)c(OCCn2ccnc2)c(C)c1", "Potency": "inactive"}, {"smiles": "Cc1nn(C)cc1/C=N/NC(=S)Nc1ccc(Cl)cc1Cl", "Potency": "inconclusive [activator, partial curve, poor fit]"}, {"smiles": "O=c1[nH]cnc2c1ncn2[C@@H]1C[C@@H](O)[C@H](CO)O1", "Potency": "inactive"}, {"smiles": "COc1cc(NC(=S)NC(=O)C(C)C)ccc1NC(=O)c1cc2ccccc2o1", "Potency": "active: 8.2 µM"}, {"smiles": "C/C=C(/C)C(=O)O[C@@H]1c2c(ccc3ccc(=O)oc23)OC(C)(C)[C@@H]1OC(=O)/C(C)=C\\C", "Potency": "inconclusive [activator, full curve, poor fit]"}, {"smiles": "O=C(N/N=C/c1c(-c2ccccc2)[nH]c2ccccc12)c1cccnc1", "Potency": "inconclusive [activator, single point]"}, {"smiles": "O=S1(=O)C=C(SCc2ccc(Cl)c(Cl)c2)Nc2ccccc21", "Potency": "inconclusive [activator, single point]"}, {"smiles": "COc1ccc(C(=O)O/N=C(\\N)Cc2cccs2)cc1OC", "Potency": "inconclusive [activator, partial curve, poor fit]"}, {"smiles": "Cc1ccc(C(C)C)c(OCCN2CCc3ccccc3C2)c1", "Potency": "inconclusive [activator, single point]"}, {"smiles": "COc1ccc(S(=O)(=O)N2CCN(CC(=O)Nc3cccc(OC)c3)CC2)cc1", "Potency": "inconclusive [activator, partial curve, poor fit]"}, {"smiles": "CC(=O)Oc1ccccc1-c1nc(/C=C/c2ccccc2)no1", "Potency": "inactive"}, {"smiles": "COc1ccc2nc(NC(=O)CSC3=NCCS3)sc2c1", "Potency": "inconclusive [activator, partial curve, poor fit]"}, {"smiles": "CC(=O)O[C@@]12CO[C@@H]1C[C@H](O)[C@@]1(C)C(=O)[C@H](O)C3=C(C)[C@@H](OC(=O)C(O)[C@@H](NC(=O)OC(C)(C)C)c4ccccc4)C[C@@](O)([C@@H](OC(=O)c4ccccc4)[C@H]21)C3(C)C", "note": "(stereo partly drawn)", "Potency": "inconclusive [activator, full curve, poor fit]"}, {"smiles": "COc1cc(CN2CCN(C(O)(c3ccccc3)c3ccccc3)CC2)cc(OC)c1OC", "Potency": "inconclusive [activator, partial curve, poor fit]"}, {"smiles": "O/N=C/c1cc(Cl)ccc1OCc1ccccc1Cl", "Potency": "inconclusive [activator, partial curve, poor fit]"}, {"smiles": "O=C1c2ccc(Cl)cc2S(=O)(=O)c2cccc(C(=O)N3CCC(Cc4ccccc4)CC3)c21", "Potency": "inconclusive [activator, full curve]"}, {"smiles": "CCOC(=O)c1cn2nc(-c3ccc(OC)cc3)cc2nc1C1CCN(C(=O)OC(C)(C)C)CC1", "Potency": "inconclusive [activator, full curve, poor fit]"}, {"smiles": "Cc1ccc(C(C)C)c(OCc2ccc(C(=O)N/N=C/c3ccc(C(=O)O)cc3)cc2)c1", "Potency": "inconclusive [activator, partial curve, poor fit]"}, {"smiles": "CCOc1cc(CN2CCN(c3ncccn3)CC2)ccc1OC", "Potency": "inactive"}, {"smiles": "CC(C)(C)C(=O)/C=c1\\[nH]c(=O)/c(=C\\c2ccc(F)cc2)s1", "Potency": "inconclusive [activator, single point]"}, {"smiles": "Cc1c(Cl)cccc1NC(=O)CCN1CCN(CCO)CC1", "Potency": "inactive"}, {"smiles": "COC(=O)/C=C/c1ccccc1S(=O)(=O)N(Cc1ccccc1)Cc1ccco1", "Potency": "active: 2.06 µM"}, {"smiles": "CC(C)(C)c1ccc(C(=O)O/N=C(\\N)c2ccccn2)cc1", "Potency": "inactive"}, {"smiles": "CCc1ccc(-c2cc3c(=O)n(CC(=O)NCCN4CCCCC4C)nc(C)n3n2)cc1", "note": "(stereo not drawn)", "Potency": "inconclusive [activator, partial curve, poor fit]"}, {"smiles": "Cc1cc(Cl)c(S(=O)(=O)N/N=C/c2ccc3c(c2)OCO3)c(Cl)c1", "Potency": "inconclusive [activator, single point]"}, {"smiles": "Cc1ccc(S(=O)(=O)N2c3ccccc3-c3c(ssc3=S)C2(C)C)cc1", "Potency": "inconclusive [activator, single point]"}, {"smiles": "CCNc1nc(NCC)nc(Oc2ccc(C(=O)OC)cc2)n1", "Potency": "inactive"}, {"smiles": "NS(=O)(=O)c1cc2c(cc1Cl)N[C@@H](C(Cl)Cl)NS2(=O)=O", "Potency": "inactive"}, {"smiles": "COC(=O)c1cc(=O)n(-c2ccc(F)cc2)c(=Nc2ccc(F)cc2)s1", "Potency": "active: 5.17 µM"}, {"smiles": "CCOc1cc(N2CCOCC2)c(OCC)cc1NC(=O)Cn1[nH]c(=O)c2ccccc2c1=O", "Potency": "inactive"}, {"smiles": "O=C(c1ccccc1)c1ccc2nc(N3CCN(C(=O)c4ccco4)CC3)c3nncn3c2c1", "Potency": "inactive"}, {"smiles": "Cc1cc(C)nc(N2N=C(c3ccccc3)CC2=O)n1", "Potency": "inactive"}, {"smiles": "CCn1cc([N+](=O)[O-])c(C(=O)Nc2nc3ccc(OC)cc3s2)n1", "Potency": "inconclusive [activator, single point]"}, {"smiles": "Cc1ccc(C)c(N(CC(=O)N2CCCC2)S(C)(=O)=O)c1", "Potency": "inactive"}, {"smiles": "O=Cc1[nH]c2ccccc2c1N(C(=O)CCl)c1ccccc1", "Potency": "inconclusive [activator, single point]"}, {"smiles": "CCCSc1nc(=S)n(Cc2ccccc2)c(C)c1C(C)=O", "Potency": "inactive"}, {"smiles": "Cc1ccc2oc(=O)cc(CN3CCOCC3)c2c1", "Potency": "inactive"}, {"smiles": "Cc1ccc(OCC(=O)Nc2ccc(S(=O)(=O)N3CCOCC3)cc2)c(Br)c1", "Potency": "inactive"}, {"smiles": "COc1ccc(C2CC(c3ccccc3OC(C)=O)=NN2C(C)=O)cc1", "note": "(stereo not drawn)", "Potency": "inactive"}, {"smiles": "CC1=Nc2cc(C(=O)NCCCOC(C)C)ccc2Sc2ccc(C)cc21", "Potency": "active: 9.2 µM"}, {"smiles": "S=C(Nc1ccc(Cl)cc1)Nc1cccc2cnccc12", "Potency": "inconclusive [activator, partial curve, poor fit]"}, {"smiles": "c1ccc(CSc2ccc(-c3ccc4c(c3)OCO4)nn2)cc1", "Potency": "inconclusive [activator, partial curve, poor fit]"}, {"smiles": "COC(=O)c1cc(=O)n(Cc2ccco2)c(=Nc2ccc(F)cc2)s1", "Potency": "inconclusive [activator, single point]"}, {"smiles": "O=C(NC1=NCCS1)c1cccc(OC(F)F)c1", "Potency": "inconclusive [activator, single point]"}, {"smiles": "CC(=O)NS(=O)(=O)c1ccc(N2C(=O)c3ccccc3C2=O)cc1", "Potency": "inconclusive [activator, full curve, poor fit]"}]}]}
